Out of some 52,000 compounds screened, about 1,700 (3.3%) were called active. Cut-off read from the data, not from the text of the source: active = survival mostly below about 52% (no sharp cut-off); inactive = mostly above about 56%. The list shows a part of the results.

The assay deals with Wild type. The assay can be described thus: S. aureus survival, RN4220 and DeltatarO strains – OD600, teichoic acid synthesis inhibitors, primary screen (AID 463173). The settings on record: S. aureus RN4220 wild type/DeltatarO growth, OD600, 18 h, hits give low values, screened at 18.75 µg/mL (by protocol).
For `NS(=O)(=O)c1ccc(CCNC(=O)Cn2c(=O)c3cccn3c3ccc(F)cc32)cc1`, the survival is inactive: 91%. With `COc1ccc2c(c1)CC(C(=O)Nc1c(C)cc(C)cc1C)CO2` (stereo not drawn), the survival was inactive: 63%. In the case of `O=C(Nc1cccc(F)c1)C1CCN(c2nc3ccccc3nc2C(F)(F)F)CC1`, the survival is inactive: 88%. The figure for `Cc1ccc(-n2c3c(c(=O)[nH]c2=O)C(NC(=O)C(C)(C)C)(C(F)(F)F)C(=O)N3)cc1` (stereo not drawn) is inactive: 68%.

With `CCc1ccccc1-n1nnc(-c2nc(-c3ccccc3F)no2)c1C`, the survival was inactive: 124%. On to `COc1cccc(C(=O)NCC(c2ccc3c(c2)OCO3)N2CCN(C)CC2)c1` (stereo not drawn), for which the survival is inactive: 121%. On to `Cn1c(=O)n(C)c2cc(NS(=O)(=O)c3ccc(Cl)cc3)c(NCc3ccccc3)cc21`, for which the survival was inactive: 134%.

With `Cc1[nH]c2ccccc2c1C1(O)C(=O)Nc2ccc(Cl)cc21` (stereo not drawn), the survival was inactive: 62%. Consider `COc1cc(CNCCCSc2nnnn2C)cc(Br)c1OC`, for which the survival is inactive: 86%. The figure for `COc1cccc(NC(=O)CSC2=Nc3ccccc3C3=NC(CCC(=O)NC4CCCCC4)C(=O)N23)c1` (stereo not drawn) is inactive: 77%.

On to `CC(Nc1ccccc1)c1ccncc1` (stereo not drawn), for which the survival was inactive: 110%. As to `COc1ccc(OC)c(NC(=O)CCCOc2cc(=O)n(C)c3ccccc23)c1`, the survival was inactive: 64%. Take `COc1ccc(NC(=O)CSc2nc3ccccc3n2CC(=O)NCc2ccc(F)cc2)cc1`: the survival is active: -6%.

As to `CC(C)NC(=O)c1ccc(OC2CSC2)cc1`, the survival was inactive: 103%.

With `COc1ccc(-c2c3c(=O)n(C)c(=O)n(C)c3c3n2-c2ccccc2NC3c2ccccc2OC)cc1` (stereo not drawn), the survival was inactive: 64%. As to `O=C(O)CCN1C(=O)CSC1=O`, the survival was inactive: 106%. Turning to `COC(=O)c1ccc(NC(=O)c2cc3cc(C)ccc3n2C)cc1`, the survival was inactive: 92%.

Consider `CCOc1ccc(NC(=O)CSc2nnc3c(C)cc4ccccc4n23)cc1`, for which the survival was inactive: 132%. For `COc1ccc(S(=O)(=O)N2CCC(C(=O)Nc3ccc(Oc4ccccc4)cc3)CC2)cc1OC`, the survival is inactive: 80%.

On to `CC1=CC(c2ccccc2)NC(=S)N1` (stereo not drawn), for which the survival is inactive: 108%. Regarding `CCCCSCCCNC(=O)c1cn(CC)c2ccc(S(=O)(=O)N3CCOCC3)cc2c1=O`, the survival was inactive: 80%. In the case of `COc1ccc(NC(=O)c2ccc(-c3nc(COc4ccccc4)c(C)o3)cc2)cc1`, the survival is inactive: 84%. For `Cc1cccc(NC(c2cccc(Cl)c2)c2ccc3cccnc3c2O)n1` (stereo not drawn), the survival was active: 4%. Take `COc1cc(NC(=O)Nc2nnc(N3CCCCC3)s2)cc(OC)c1`: the survival was inactive: 72%. Regarding `COC(=O)c1ccccc1NC(=O)Cn1nc(C)c2nn(-c3ccc(Cl)cc3)c(C)c2c1=O`, the survival is inactive: 75%. As for `O=c1c2[nH]c3ccccc3c2nc(SCc2ccccc2F)n1-c1ccc(F)cc1`, the survival was inactive: 84%.

Consider `CCc1ccccc1NC(=O)Cn1nc(-c2cc(C)ccc2C)c2c(c1=O)CCCC2`, for which the survival is inactive: 78%. As for `Cc1ccc2c(CC(=O)Nc3ccc(S(=O)(=O)N4CCC(C)CC4)cc3)coc2c1`, the survival was inactive: 76%.

Turning to `CC1CCc2nc3ccc(S(=O)(=O)N4CCC(C(=O)NCc5ccccc5Cl)CC4)cc3c(C(=O)O)c2C1` (stereo not drawn), the survival was inactive: 127%. Turning to `Cc1nn(-c2ccccc2)c2c1N(CCCC(=O)NCc1ccc(OC(C)C)cc1)C(=O)CS2`, the survival is inactive: 72%. The figure for `Cc1ccc(CNC(=O)c2ccc3oc(=O)n(Cc4ccccc4)c3c2)cc1` is inactive: 57%; for `COc1ccc(Cl)cc1NC(=O)C1CCCN(S(=O)(=O)c2ccc3c(c2)CCCC(=O)N3)C1` (stereo not drawn) it is inactive: 131%. Take `Cc1ccccc1OCC(=O)Nc1ccc(OCc2cc(=O)n3ccccc3n2)cc1`: the survival is inactive: 98%. The figure for `CCC1Oc2ccc(C)cc2N(CC(=O)NC(C)C)C1=O` (stereo not drawn) is inactive: 102%. The figure for `O=C(CSc1nc2c(c(=O)[nH]1)CN(Cc1ccc3c(c1)OCO3)CC2)Nc1cc(F)ccc1F` is inactive: 83%; for `CCOC(=O)c1c(NC(=O)CSc2cn(CCNC(=O)c3ccc(OC)cc3)c3ccccc23)sc2c1CCC2` it is inactive: 72%; for `CC1(C)CC(NC(=O)c2ccccc2Cl)CC(C)(C)N1` it is inactive: 104%.

`COc1ccc(NC(=O)CSc2nc(-c3ccccc3)cc(-c3cc(OC)c(OC)c(OC)c3)c2C#N)c(OC)c1`: the survival was inactive: 82%. For the compound `COc1ccccc1-c1cc(C(=O)Nc2c(C)nn(Cc3ccc(Cl)cc3)c2C)no1`, the survival is inactive: 49%. On to `COc1ccc(-c2nnc(SCC(=O)Nc3cccc(C)c3)s2)cc1`, for which the survival is inactive: 119%.

`CC(=O)N1CCc2cc(CNS(=O)(=O)c3cccs3)ccc21`: the survival was inactive: 63%. Take `CCCCOC(=O)c1ccc(NC(=O)C2(c3cccs3)CCOCC2)cc1`: the survival was inactive: 72%.

With `CCCCN(CCCNC(=O)c1cc(Nc2ccc(OC)cc2OC)nc2ccccc12)Cc1ccccc1`, the survival is inactive: 85%. For `CCOc1ccccc1N(C)C(=O)c1sc2nc3n(c(=O)c2c1C)CCCC3`, the survival is inactive: 85%. For `Cc1nn(CC(=O)Nc2ccc(C(C)C)cc2)c(=O)c2c(C)n(-c3ccc(Cl)cc3)nc12`, the survival is inactive: 90%. Regarding `COc1ccc(NC(=O)CSc2nccn2C2CCCC2)cc1OC`, the survival was inactive: 72%. For the compound `COc1ccc(-c2cn3nc(N4CCCC(C(=O)Nc5ccccc5F)C4)sc3n2)cc1` (stereo not drawn), the survival is inactive: 92%.

`Cn1ccc2cc(S(=O)(=O)N3CCN(C(=O)Nc4cccc(F)c4)CC3)ccc21`: the survival was inactive: 74%. Take `COc1ccc(NC(=O)C(c2ccc(OC)cc2)N(C)C(=O)Cc2cccs2)cc1` (stereo not drawn): the survival is inactive: 93%. On to `Cc1ccc(Cn2cc(S(=O)(=O)c3ccccc3)c(=O)c3cc(F)c(N4CCOCC4)cc32)cc1`, for which the survival was inactive: 58%.

On to `O=C1C2C3c4ccccc4C(c4ccccc43)C2C(=O)N1CN1CCOCC1` (stereo not drawn), for which the survival is inactive: 111%. Turning to `CC(C)(Oc1ccc(Cl)cc1)C(=O)Nc1ccc(-c2nc3ncccc3o2)cc1`, the survival is inactive: 74%. On to `COc1ccccc1N1CCN(S(=O)(=O)CCNC(=O)c2cc(=O)c3ccccc3o2)CC1`, for which the survival is inactive: 82%. In the case of `CC(C)(C)c1nnc(NS(=O)(=O)c2ccc(F)cc2)s1`, the survival was inactive: 102%.

As to `COc1cccc(C(=O)CN2C(=O)C(C)(C)Oc3ccc(C(=O)N4CCOCC4)cc32)c1`, the survival is inactive: 109%. With `Cc1ccccc1C(=O)Nc1cccc(-c2nc3cccnc3s2)c1`, the survival is inactive: 87%. The figure for `COc1ccc(C(CNC(=O)COc2cc(C)c(Cl)c(C)c2)N2CCCCC2)cc1` (stereo not drawn) is inactive: 78%; for `COc1cccc(N2CCN(C(=O)CCn3nc(C)c(S(=O)(=O)N4CCCC4)c3C)CC2)c1` it is inactive: 76%. Regarding `O=C(CSc1nc(=O)n(Cc2ccncc2)c2c1CCC2)Nc1ccccc1`, the survival was inactive: 86%.

For `COc1cccc(CNC(=O)CCc2c(C)c3cc4c(C)coc4cc3oc2=O)c1`, the survival was inactive: 71%.

For the compound `O=c1c(S(=O)(=O)c2ccccc2)cn(Cc2ccc(F)cc2)c2cc(N3CCCC3)c(F)cc12`, the survival was inactive: 64%. Consider `Cc1ccc(OCc2cc(=O)n3c4c(sc3n2)CCCC4)c(C)c1`, for which the survival is inactive: 82%. Turning to `COc1cccc(CNC(=O)C2CCC(CNS(=O)(=O)c3cccs3)CC2)c1` (stereo not drawn), the survival was inactive: 71%.

Regarding `CCCC(=O)N(c1ccc2oc3c(c2c1)CCCC3)S(=O)(=O)c1ccc(CC)cc1`, the survival was inactive: 67%. Consider `CC(=O)NC1C(OC2=CC3OC(=O)CC(C)=C3C=C2)OC(CO)C(O)C1O` (stereo not drawn), for which the survival was inactive: 109%.

With `COc1cccc(NC(=O)c2sc(-n3nc(C)c(Cc4ccccc4Cl)c3C)nc2C)c1`, the survival was inactive: 98%. Consider `CC1CCN(S(=O)(=O)c2ccc3c(c2)N(CC(=O)NCc2ccccc2Cl)C(=O)CO3)CC1`, for which the survival was inactive: 153%. The figure for `COc1ccc(OC)c(-n2c(=O)[nH]c3cc(C(=O)NCCc4ccc(OC)c(OC)c4)ccc3c2=O)c1` is inactive: 84%; for `Cc1ccccc1NC(=O)c1ccc(NC(=O)N2CCSc3ncccc32)cc1` it is active: -4%.

As to `Cc1cc(N2CCCC2)nc(SCC(=O)c2ccccc2)n1`, the survival is inactive: 110%. With `COc1ccc(NCc2nc3ccccc3n2CCOc2ccccc2C)cc1`, the survival was active: 4%. Turning to `S=c1[nH]nc(CCn2c3ccccc3c3ccccc32)n1-c1ccccc1`, the survival was inactive: 112%. Consider `Cc1ccc(N(C)C(=O)Cn2nc(Cc3ccncc3)c3ccccc3c2=O)cc1C`, for which the survival was inactive: 81%. For `Cc1ccc(CNS(=O)(=O)c2ccc(F)c(C(=O)Nc3ccc(C)c(F)c3)c2)cc1`, the survival was inactive: 64%.

On to `O=C(Nc1ccc(F)cc1)c1ccc(-n2cnc3cccnc32)cc1`, for which the survival is inactive: 97%. On to `O=C(NCCc1ccc(Cl)cc1)c1ccc(CS(=O)(=O)Cc2ccc(F)cc2)o1`, for which the survival was inactive: 76%.

With `O=C(NCCS(=O)(=O)N1CCN(c2ccccc2F)CC1)c1cc(=O)c2ccccc2o1`, the survival was inactive: 68%. Take `COC(=O)c1c(SC)nc2ccccc2c1OCc1cccc(C)c1`: the survival was inactive: 74%. In the case of `COc1cccc(COC(=O)c2nn(-c3ccccc3)nc2N)c1`, the survival was inactive: 24%.

For the compound `CCC(CC)C(=O)Nc1cccc(-c2nc3cccnc3s2)c1`, the survival was inactive: 90%. In the case of `COc1cc(OC)c(NC(=O)C(C)n2c(=O)cc(-c3ccccc3)c3c(C)nn(C)c32)cc1Cl` (stereo not drawn), the survival is inactive: 73%. The figure for `CCOc1ccc(-c2nc(Cn3c(=O)cc(-c4ccccc4)c4c(C)nn(C)c43)c(C)o2)cc1OC` is inactive: 134%; for `CCc1ccc(NC(=O)N2CC=C(c3c[nH]c4ccccc34)CC2)cc1` it is inactive: 47%; for `CNC(=O)C1CCC(Cn2c(=O)c3sccc3n(Cc3ccccc3)c2=O)CC1` (stereo not drawn) it is inactive: 75%. With `Cc1csc2nc(COC(=O)c3ccccc3NC(=O)c3ccccc3Cl)cc(=O)n12`, the survival was inactive: 74%. To `COc1ccccc1CCNC(=O)c1cc2c(=O)n3cccc(C)c3nc2n1C` belongs inactive: 85%. For `COc1ccc(C(=O)NCC(c2cccnc2)N2CCc3ccccc3C2)cc1` (stereo not drawn), the survival is inactive: 81%.

In the case of `CCN(CC)c1ccc(NC(=O)CCS(=O)(=O)c2cccc3nsnc23)c(C)c1`, the survival was inactive: 67%.

The values are drawn from PubChem BioAssay AID463173 (ICCB-Longwood Screening Facility, Harvard Medical School, 2010).
